Reference: paper PMC7819943, “Rice protein-binding microarrays: a tool to detect cis-acting elements near promoter regions in rice”
This is one part of the list.

These sequences were tested against T1, OsWOX13 (Oryza sativa, UniProt Q5QMM3 1-267) (assay: protein-binding microarray (RPBM); PBS, 2% BSA, 51.3 ng/ul salmon testes DNA, 50 uM zinc acetate, 200 nM TF, 25 C, 1 h; high values mean tight binding). Settings: protein: recombinant; tags: N-terminal polyhistidine and DsRed monomer fusion (pET32a); label: CyDye5-dUTP incorporated in the synthesized complementary strand; 3' TTTTT single-stranded linker to array surface; dsDNA, one strand shown.
T1 sequence: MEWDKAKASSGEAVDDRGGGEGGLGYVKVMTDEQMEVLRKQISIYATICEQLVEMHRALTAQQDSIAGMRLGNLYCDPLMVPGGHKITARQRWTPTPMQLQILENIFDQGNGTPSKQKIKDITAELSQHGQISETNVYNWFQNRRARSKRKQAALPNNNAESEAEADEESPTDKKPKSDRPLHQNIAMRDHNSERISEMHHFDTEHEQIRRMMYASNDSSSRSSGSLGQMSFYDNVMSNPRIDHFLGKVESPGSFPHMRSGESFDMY
Summary of the method: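 Transcription factors were made in E. coli BL21-CodonPlus as N-terminal fusions to a polyhistidine tag and DsRed, then purified on Ni–NTA. After primer extension with Cy5-dUTP and blocking with 2% BSA, a custom Agilent array was exposed for 1 h at 25 °C to 200 nM protein in PBS, 2% BSA, salmon testes DNA and 50 µM zinc acetate. Washed arrays were scanned on an Axon 4000B, and the binding signal is per-feature fluorescence intensity in arbitrary units.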

Sequence | binding signal
ATGAAATTTAAAACTTAAATTTCGGTTATGGCTGATAAGCCGGAGTCACCTAGTGCAG | 17500 fluorescence intensity (a.u.)
ACTTGATGGCGATTAAGAGCTCCTCCTCTGTCATGCTCATCGGAGTCACCTAGTGCAG | 7500 fluorescence intensity (a.u.)
GTCGCCGCCAATCATGTCGTCATCGTGTCGCCATCCCATCCGGAGTCACCTAGTGCAG | 11500 fluorescence intensity (a.u.)
ATTTATTTGAAATTTCACATATAAATCAATGTACTATGTGCGGAGTCACCTAGTGCAG | 4760 fluorescence intensity (a.u.)
TAGAATAAATATGAAATAAATTATGAAATTGGAAGAACAACGGAGTCACCTAGTGCAG | 3700 fluorescence intensity (a.u.)
ACCACTTGATTAGCGCCACGAGCAGCACGCGCGGGCAGACCGGAGTCACCTAGTGCAG | 28800 fluorescence intensity (a.u.)
CATGTTTTCTTACAAATTAAATTAAGGATTTCTACTTTGACGGAGTCACCTAGTGCAG | 3160 fluorescence intensity (a.u.)
AATGGAGATTGGATCTGATTGGTTGTTGTTGCTTGAGGATCGGAGTCACCTAGTGCAG | 62600 fluorescence intensity (a.u.)
CCGATTGATATCTAATTTTATCCCTCACAAGTCACAGGGACGGAGTCACCTAGTGCAG | 38100 fluorescence intensity (a.u.)
GTTAATTAAGCTGGGAGATTAACGCTGAACAAATAATTAACGGAGTCACCTAGTGCAG | 10400 fluorescence intensity (a.u.)
GATTTTGATATTATAATTAATATCCATATAATAATAGCCTCGGAGTCACCTAGTGCAG | 6490 fluorescence intensity (a.u.)
ATGAGTTAAATCAAATTTACAAAGTTTAAATATGTCCATGCGGAGTCACCTAGTGCAG | 3400 fluorescence intensity (a.u.)
AGGTAAAATCACAATTAGATATGAAAATAGGGATTGCTCCCGGAGTCACCTAGTGCAG | 7560 fluorescence intensity (a.u.)
GATAATTAGAGGCCGTTGCTGCTGTGCTTACCACTGTGTGCGGAGTCACCTAGTGCAG | 35400 fluorescence intensity (a.u.)
CATGCTTGATTAAAATTCATCAATGCACAAAGCATGTCAGCGGAGTCACCTAGTGCAG | 21100 fluorescence intensity (a.u.)
ATGTTTCCTGCTTTGTCAATTAATCTCAAATGTTCAAAATCGGAGTCACCTAGTGCAG | 3950 fluorescence intensity (a.u.)
TATAAATAGATATTTGAGATTTATCCATATTACGTTGAGTCGGAGTCACCTAGTGCAG | 7020 fluorescence intensity (a.u.)
GCAAAATTGGCAAACAGCTGTCAACTGGGAGGCAAATATCCGGAGTCACCTAGTGCAG | 18200 fluorescence intensity (a.u.)
CCTGACAGCTACTATAGCTTGCTCCAGCGCTGTCAAACTTCGGAGTCACCTAGTGCAG | 4050 fluorescence intensity (a.u.)
CCAAGAAATGATTTTAACTGCAGATACAGTCTTCTTCCTGCGGAGTCACCTAGTGCAG | 9560 fluorescence intensity (a.u.)
ACTCAGATTAATATTTCACAATTTGCAGATGTTCTTCATCCGGAGTCACCTAGTGCAG | 5960 fluorescence intensity (a.u.)

Sequence | binding signal
GAGTTTTAATTATTATAAACTTAAAATATATATATTTGATCGGAGTCACCTAGTGCAG | 20500 fluorescence intensity (a.u.)
CCGCTGAATCATCGTCAATCATCATCAGACACACTAGTGACGGAGTCACCTAGTGCAG | 22000 fluorescence intensity (a.u.)
ATGAGATTGCTTTTGTGTAGAGCACTCTATGTAATTTAACCGGAGTCACCTAGTGCAG | 5800 fluorescence intensity (a.u.)
TGTAACCAATTAACTAGTCCGTATCTGCAAACACACAGCGCGGAGTCACCTAGTGCAG | 9410 fluorescence intensity (a.u.)
CTTGCAAATCAATCAGTCTTTCTCTCTCCGATTCTCTGTACGGAGTCACCTAGTGCAG | 24000 fluorescence intensity (a.u.)
CATCGATCGAGCTGATTGCTGCTTCGCGTACGCGCCTAGACGGAGTCACCTAGTGCAG | 3490 fluorescence intensity (a.u.)
TTTACTTATCAATCATGGCTCAAACAATTAGTTTAAGATGCGGAGTCACCTAGTGCAG | 19800 fluorescence intensity (a.u.)
GTAATTAATTAACATTGCAATTAAGCACATAAGTTAATCACGGAGTCACCTAGTGCAG | 27000 fluorescence intensity (a.u.)
ATCCAATTAATTTATCTAGCATTTTGGATTTACCACCTCACGGAGTCACCTAGTGCAG | 38100 fluorescence intensity (a.u.)
TACGCTATACGCAGTAATTGATATATATAATCTTCATGGTCGGAGTCACCTAGTGCAG | 8920 fluorescence intensity (a.u.)
ATGAAAGATTGATATGTTGACATGTTCACAGATGAACTTACGGAGTCACCTAGTGCAG | 17200 fluorescence intensity (a.u.)
GGATTAATTTGTGATACGATCGGGTGAAAATATGGTTGTTCGGAGTCACCTAGTGCAG | 36400 fluorescence intensity (a.u.)
AATAATTATATTGTGAGTGAGCTTAAATAAGAAACTATGTCGGAGTCACCTAGTGCAG | 27600 fluorescence intensity (a.u.)
TAAACAGGTAATTATCCAAGAGCCAAATTAACCAAGACAGCGGAGTCACCTAGTGCAG | 23700 fluorescence intensity (a.u.)
AATCATGGATTAATTAGTCTCAAAAGATCCGTATCGCGATCGGAGTCACCTAGTGCAG | 3180 fluorescence intensity (a.u.)
GAAAATTCAAATTTTAGCTAATTAATAAGCATATGTATAACGGAGTCACCTAGTGCAG | 8390 fluorescence intensity (a.u.)
ACTCATCAACAGTAGAAATTTAATTGAATTGCCATATGGTCGGAGTCACCTAGTGCAG | 5530 fluorescence intensity (a.u.)
TGTGCTCAGCCTTAATTAATTAATCGAGCGAGTCATAAGCCGGAGTCACCTAGTGCAG | 13000 fluorescence intensity (a.u.)
ATGACATAGTTAAATTTGAAAATAATGCAACTTAATACTTCGGAGTCACCTAGTGCAG | 4360 fluorescence intensity (a.u.)
CACAGATAATATAAATTGAGACACCGAAATCAAGAACTCGCGGAGTCACCTAGTGCAG | 15300 fluorescence intensity (a.u.)
AAATAAACAAATCAAGAACATTCTACAAAAGACAGTCCATCGGAGTCACCTAGTGCAG | 3230 fluorescence intensity (a.u.)

Sequence | binding signal
GGAGATACGGCGAGGGGAGGGGACGGAGGGGCGGGGTGCGCGGAGTCACCTAGTGCAG | 5050 fluorescence intensity (a.u.)
CTATAGTATAATTACATTGTAATTTTAGTTTTCTAACACTCGGAGTCACCTAGTGCAG | 11500 fluorescence intensity (a.u.)
AAGATAAATTAATATGTAATATATCACTTCATAAATATACCGGAGTCACCTAGTGCAG | 9450 fluorescence intensity (a.u.)
TATTTTAAATTATAATATGTATAAAATTGTTAGCAAAACGCGGAGTCACCTAGTGCAG | 4730 fluorescence intensity (a.u.)
TTGAAAGCAGCAGTGATTGCTAGTATGATTTCCTGGACATCGGAGTCACCTAGTGCAG | 28100 fluorescence intensity (a.u.)
CGGTAGATTAGATAGATCATAGATCAAGGGAGCTAGCTAGCGGAGTCACCTAGTGCAG | 7750 fluorescence intensity (a.u.)
TCTTCTAAATTTATACTCTTGTTGAGTACTACATGTTTGTCGGAGTCACCTAGTGCAG | 5210 fluorescence intensity (a.u.)
AGGGACCAATAAATATAATTTATGAGTAATGACAAGGCTTCGGAGTCACCTAGTGCAG | 4920 fluorescence intensity (a.u.)
TACATTTAATTTGTTATGTGTTAAAATAGGTATAAGTTAGCGGAGTCACCTAGTGCAG | 8430 fluorescence intensity (a.u.)
CATTTGCTGGATGTGCTCCTTACTTAATATTTATGCATGGCGGAGTCACCTAGTGCAG | 52600 fluorescence intensity (a.u.)
ATTAATTTTCTTTGTTATCCATCAAACAAACCGTGATCGGCGGAGTCACCTAGTGCAG | 17800 fluorescence intensity (a.u.)
GGAAATTACCGTCTCACTGACAAGCAGCTTTGCGCCCACCCGGAGTCACCTAGTGCAG | 7820 fluorescence intensity (a.u.)
TAACTGATTAATTTATTTTGGTGATTTATTGTAATTAAGACGGAGTCACCTAGTGCAG | 37600 fluorescence intensity (a.u.)
GACATCCTCTAATTTGGGAAAACATCGATTTTATTTTCTTCGGAGTCACCTAGTGCAG | 3420 fluorescence intensity (a.u.)
TCTGATTGCTGTTAGTTGTTGATGAGATGGAGATGGAGATCGGAGTCACCTAGTGCAG | 39900 fluorescence intensity (a.u.)
TAATTTTAGATTGCTATTATATTATTTTAGACATGTAGATCGGAGTCACCTAGTGCAG | 16400 fluorescence intensity (a.u.)
CTTAATGTTAATCACACCGCTTAACCAAATGTCTTCTACACGGAGTCACCTAGTGCAG | 11600 fluorescence intensity (a.u.)
CTGGATTTGCTGTTTTGTTAATCATAGATAAAGCAGTACACGGAGTCACCTAGTGCAG | 4200 fluorescence intensity (a.u.)
AGCTCTGATTGAATTAGCTAATTATGGTTGCACGTCTAAGCGGAGTCACCTAGTGCAG | 59600 fluorescence intensity (a.u.)
TAATACAATTACATTATAATTATAGACTATATTTTACATCCGGAGTCACCTAGTGCAG | 25000 fluorescence intensity (a.u.)
TAGAGATTGAGATTTTCACCACAATGCCACTGAACTATCCCGGAGTCACCTAGTGCAG | 12300 fluorescence intensity (a.u.)

Sequence | binding signal
GATAAATTCAATTAAGGTTCATACCTTGAAAATTGTATTTCGGAGTCACCTAGTGCAG | 19200 fluorescence intensity (a.u.)
ACAAATTGTAATATCAGATAGAAACCCTTCGGTGTGTTCACGGAGTCACCTAGTGCAG | 6080 fluorescence intensity (a.u.)
TTCCTGACCCTGCTTCACCTTAATTGTTATTTGAACAAAACGGAGTCACCTAGTGCAG | 3680 fluorescence intensity (a.u.)
TTGTACATAATTGAAATTGACAATATACAATGTATAAGGGCGGAGTCACCTAGTGCAG | 45100 fluorescence intensity (a.u.)
GTAGATGAGCAATCCAATGTGTACCTGTGTTGTCTGTTGACGGAGTCACCTAGTGCAG | 3510 fluorescence intensity (a.u.)
TTCTTCGGTGGTGGTGGTGGTGGGATGGAAGAGGAGGAAGCGGAGTCACCTAGTGCAG | 8000 fluorescence intensity (a.u.)
TCAAATACTAAGACTAATTGGTTAGTCTAACTACTTTCGTCGGAGTCACCTAGTGCAG | 13000 fluorescence intensity (a.u.)
TTGCAAATAATTTGGAAAGGTAATATGAGCTACAGCTGTGCGGAGTCACCTAGTGCAG | 7080 fluorescence intensity (a.u.)
TGAAACAAATTGACCACGTATGTATACTCATATGCAAATACGGAGTCACCTAGTGCAG | 14100 fluorescence intensity (a.u.)
CACCGTAATCATCATTCATCAGTACAATTAATCAACATTACGGAGTCACCTAGTGCAG | 18300 fluorescence intensity (a.u.)
GTGTGGATGGTTAGGGGAGGGTTATGTGGAGGGTCTTGTCCGGAGTCACCTAGTGCAG | 3570 fluorescence intensity (a.u.)
AAAATTTACTTTTGATAGACATATTTCAATCCAACCATCTCGGAGTCACCTAGTGCAG | 8670 fluorescence intensity (a.u.)
CACATAATTGAACTGCTAATTTTATTCTAGTCGGAAGCACCGGAGTCACCTAGTGCAG | 54600 fluorescence intensity (a.u.)
ATTAATTATATGATAGCAATAGATTTTCTATCGTTTTCTTCGGAGTCACCTAGTGCAG | 33100 fluorescence intensity (a.u.)
GAGTGATTTTGGTGTGAATAGTTGGGTACTGTGGTAAATGCGGAGTCACCTAGTGCAG | 6930 fluorescence intensity (a.u.)
CCAAGATAGTAAGTTAGTAACTAATTACTTGACCAAGTGGCGGAGTCACCTAGTGCAG | 5920 fluorescence intensity (a.u.)
TATTAGATTGATTAACTTTAGGAGGAAGGAGTACCGGTTACGGAGTCACCTAGTGCAG | 46100 fluorescence intensity (a.u.)
TACCTAATTACCTTTGGGGTAAAGGGATCACTCGAATGTTCGGAGTCACCTAGTGCAG | 20000 fluorescence intensity (a.u.)
ATAATTTACTGCTACTGACTATATGTACTACCTCTTGCCTCGGAGTCACCTAGTGCAG | 11000 fluorescence intensity (a.u.)
GTAAACTAAACTGATCTGCGAATTAAAGTTAAATTACAAGCGGAGTCACCTAGTGCAG | 4960 fluorescence intensity (a.u.)
CGTAATAAATGAGTGGGACGTAGGGTAGTTTGCATGCCCTCGGAGTCACCTAGTGCAG | 4190 fluorescence intensity (a.u.)
